Test results taken from paper PMC11374477 (Journal of the American Chemical Society, 2024).

Columns and labels:
HnH6H = HnH6H (Hyoscyamus niger, UniProt P24397); conditions: vanadyl-succinate complex; labelled compound (7-d1)
AbH6H = AbH6H (Atropa belladonna, UniProt Q9XJ43); conditions: co-product; V complex with Hyo
Sequence of AbH6H (Q9XJ43 1-343): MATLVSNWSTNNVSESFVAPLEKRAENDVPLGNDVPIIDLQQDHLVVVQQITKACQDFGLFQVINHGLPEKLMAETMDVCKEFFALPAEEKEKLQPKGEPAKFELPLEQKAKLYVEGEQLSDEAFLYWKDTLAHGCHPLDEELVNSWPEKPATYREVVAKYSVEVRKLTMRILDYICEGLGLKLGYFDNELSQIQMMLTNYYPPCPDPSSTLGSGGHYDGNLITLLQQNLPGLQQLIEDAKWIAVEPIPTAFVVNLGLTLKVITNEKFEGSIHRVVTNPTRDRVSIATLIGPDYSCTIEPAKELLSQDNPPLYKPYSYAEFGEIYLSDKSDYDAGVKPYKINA

Sequence of HnH6H (P24397 whole entry, looked up): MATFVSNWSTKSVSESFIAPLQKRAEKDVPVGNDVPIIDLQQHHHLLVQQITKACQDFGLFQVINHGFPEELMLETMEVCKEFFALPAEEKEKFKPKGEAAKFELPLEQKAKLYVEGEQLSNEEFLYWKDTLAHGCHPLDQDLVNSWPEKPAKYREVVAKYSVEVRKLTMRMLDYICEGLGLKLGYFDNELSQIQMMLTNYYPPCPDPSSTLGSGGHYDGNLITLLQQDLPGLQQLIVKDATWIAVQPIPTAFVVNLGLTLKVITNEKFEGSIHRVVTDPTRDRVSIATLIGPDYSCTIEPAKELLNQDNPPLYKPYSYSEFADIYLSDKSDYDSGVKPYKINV

In the case of `CN1[C@H]2C[C@H](OC(=O)[C@H](CO)c3ccccc3)C[C@@H]1[C@@H](O)C2` [6-OH-Hyo, 6β-hydroxyhyoscyamine], the 2H-HYSCORE spectroscopy (HnH6H) was “HYSCORE spectra for the HnH6H•V^IVO•succ•7-d1-6-OH-Hyo (epoxidation) complex”.
`O=C(O)CCC(=O)O` [succ, succinate] was tested, and the X-ray crystallography (AbH6H) was “Structures obtained from crystals of the AbH6H•V^IVO•succ•Hyo and AbH6H•V^IVO•succ•6-OH-Hyo complexes”.
